Measured values: PubChem BioAssay AID624173 (National Center for Advancing Translational Sciences (NCATS), 2012)
In all, about 410,000 compounds went through this assay and about 490 (0.12%) were called active. Inconclusive means that the source gave no clear call. Such entries were picked first, then a sample of the others. The call rests on the fitted dose curve; in most records, active means well fitted inhibition curve with a large enough effect; inconclusive means small, poorly fitted or top-dose-only effect; inactive means flat fitted curve, though single readings scatter. A potency beside an inconclusive call is a rough fit, not a confirmed value.

Each molecule was assayed against pyruvate kinase (Trypanosoma brucei) (UniProt Q57TT1) (assay: qHTS of Trypanosoma Brucei Inhibitors). Details: TbPYK enzyme, Kinase-Glo Plus ATP luminescence, 45 min; series mostly up to 76.8 µM; activity, negative = inhibition: at the top concentration.
Outline: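 Glycolytic pyruvate kinase of T. brucei was incubated with substrate, test compound and 130 uM ADP for 45 minutes at room temperature. Luminescent Kinase-Glo Plus signal was measured after 10 minutes.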
Further: nearly all actives have a fitted effect of over 50% in size.
On the % scale 0 is the no-effect control and ±100 the full control effect; potency means the concentration at half of the fitted maximal effect; tags describe the fitted curve by direction and shape.

Question: For `Cn1cc(Cl)c(C(=O)NNC(=S)Nc2cccc(Cl)c2)n1`, which Potency is on record?
Answer: The Potency was inconclusive: 11.2 µM [inhibitor, partial curve, poor fit].

Question: With `CCOc1ccc(N2C(=O)NC(=O)/C(=C\c3ccc(N4CCOCC4)cc3C)C2=O)cc1` as the molecule, how does the Potency read?
Answer: Its Potency is inconclusive: 39.8 µM [inhibitor, single point].

Question: For `Cc1ccc(NC(=O)COc2ccccc2C(N)=O)cc1S(=O)(=O)N1CCCCCC1`, which “activity, negative = inhibition” value is on record?
Answer: The value was inactive: 1.04%.

Question: For `O=C(NC(=S)NNC(=O)[C@H]1C[C@@H]1c1ccccc1)c1ccc(F)cc1`, which Potency is on record?
Answer: The Potency was inconclusive: 25.1 µM [inhibitor, single point].

Question: Which Potency does the source give for `Cc1oc(=O)c(NC(=O)c2ccc(Cl)cc2)cc1C(=O)c1ccccc1` here?
Answer: Its Potency is inconclusive: 39.8 µM [inhibitor, single point].

Question: For `COc1ccc(OCCNC(=O)c2ccccc2OCC(=O)N2CCCCC2)cc1`, which “activity, negative = inhibition” value is on record?
Answer: The value was inactive: 1.54%.

Question: How did the Potency turn out when `COc1ccc(/C=C2\C(=O)ON=C2c2ccccc2)cc1OC` was run?
Answer: Its Potency is inconclusive: 50.1 µM [inhibitor, single point].

Question: `CCN(CC)c1ccc(NC(=O)Cn2cc3c(n2)CCC(C)C3)c(C)c1` (stereo not drawn) was tested. Which Potency did it give?
Answer: Its Potency is inconclusive: 20 µM [inhibitor, partial curve, poor fit].

Question: How did the Potency turn out when `Cc1cccc(NCc2n[nH]c(=S)n2-c2ccccc2)c1` was run?
Answer: Its Potency is inconclusive: 25.1 µM [inhibitor, partial curve, poor fit].

Question: `COc1cc(C2c3cc4c(cc3OC(NNC(N)=O)C2C)OCO4)cc(OC)c1OC` (stereo not drawn) was tested. Which “activity, negative = inhibition” value did it give?
Answer: The value was inactive: 1.83%.

Question: How did the Potency turn out when `Cc1ccc(S(=O)(=O)N(C)C)cc1NC(=O)c1cc(-c2ccco2)nc2ccccc12` was run?
Answer: The Potency was inconclusive: 20 µM [inhibitor, partial curve].

Question: Which “activity, negative = inhibition” value does the source give for `Cc1ccc(N2CN(S(=O)(=O)c3cccc([N+](=O)[O-])c3)c3nc4ccccc4nc32)cc1` here?
Answer: Its value is inactive: -1.56%.

Question: How did the Potency turn out when `Cc1nn2c(NCCCN3CCOCC3)c3c(nc2c1-c1ccccc1)CCC3` was run?
Answer: The Potency was inconclusive: 50.1 µM [inhibitor, single point].

Question: How did the Potency turn out when `O=C(O)CSc1cc(NS(=O)(=O)c2cccc([N+](=O)[O-])c2)c2ccccc2c1O` was run?
Answer: The Potency was inconclusive: 15.8 µM [inhibitor, partial curve].

Question: How did the Potency turn out when `O=C(Nc1ccc(Cl)cc1)c1ccc2ncsc2c1` was run?
Answer: Its Potency is inconclusive: 31.6 µM [inhibitor, partial curve, poor fit].

Question: Which Potency does the source give for `N#CN=C1SCCS1` here?
Answer: The Potency was inconclusive: 31.6 µM [inhibitor, single point].

Question: With `O=C(C[C@H]1C[C@H](C(=O)N2CCOCC2)[C@@]2(CCC3CCCC3)c3[nH]c4cc(-c5ccco5)ccc4c3CCN2C1=O)NCCN1CCOCC1` as the molecule, how does the “activity, negative = inhibition” value read?
Answer: Its value is inactive: -0.538%.

Question: How did the Potency turn out when `O=C(Nc1n[nH]c(=S)s1)c1ccc2ccccc2c1` was run?
Answer: Its Potency is inconclusive: 20 µM [inhibitor, partial curve, poor fit].
